The RNAGym collection of RNA variant scans (doi:10.7554/elife.90254)
The source gives no read counts; variants with many changes may rest on few reads.

B1: OR4K15 (parent)
chain: GUUAACGGUCAUAGGCCAUGGAAACUAGGAGCACCAUUUCGCUGCCAGUGAAGAAAUGAACAAAGAAAAUCUGGGCCAGGCAGGCAUCAAAAGAAAUAGUCUUGCGCUCAACCAGAAAGUCUGUAAUCAUUUUAAGGGUA

Variants of: B1
Experiment: self-cleavage, relative activity (ratio to wild type); higher = more cleavage; in vitro, sequencing; the parent is a self-cleaving ribozyme
Variant A24G A60G A66C has a self-cleavage of 0.95. Work on U2C A55G A91G yielded a self-cleavage of 0.67. In the case of U19C A27U C34U U57C A59G A69C U102C, the self-cleavage is reported as 1.05. U87C A90G A135U showed a self-cleavage of 0.28. Variant C10U U37C A94U has a self-cleavage of 0.96. With A52G A68G A89G A90G A92G U100C the self-cleavage was 1.54. Work on A68G A86G A125G yielded a self-cleavage of 0.28. U9C A60G U72C showed a self-cleavage of 0.27. Work on A18G A118G U130C yielded a self-cleavage of 0.5. Work on U72C U97A A140G yielded a self-cleavage of 0.32. In the case of A30U A51U A54G A66G A90G A96G U133A, the self-cleavage is reported as 1.32. Work on A5G U49C A63G U97C U108A A110G yielded a self-cleavage of 0.1. Work on A11U C46U A52G A59G A114C yielded a self-cleavage of 0.01. U38C C42A A52G U57A showed a self-cleavage of 0.68. With A11U A24U G44A U70C A78G G138A the self-cleavage was 0.26. In the case of U3C A22G A54G A60G U70C A118G, the self-cleavage is reported as 0.17. A36G G48A A95G A126U U127C gave a self-cleavage of 1.38. A27G A52G A78G gave a self-cleavage of 0.19. With U2C A11G U49C the self-cleavage was 0.68. A11G A54U U122C gave a self-cleavage of 0.55. A4G A67G A125G showed a self-cleavage of 0.45. A5G A33G U100C gave a self-cleavage of 1.63. In the case of A62G A92G A114U A129G U131C, the self-cleavage is reported as 0.02. For A36G A86G A92G, the self-cleavage was 0.87. A33U U38C A60U A116G showed a self-cleavage of 1.16. With A47G A67G A89G A116G the self-cleavage was 0.17. For A47U A66G U70C A90G, the self-cleavage was 0.39. In the case of A11G A24G A59G C101U, the self-cleavage is reported as 0.48. With A24G A68U A69G U72C A117G A125G the self-cleavage was 0.02. A54G A56G A96U showed a self-cleavage of 1.46. For U39A A82G C128U, the self-cleavage was 0.27. A54G A55U A63G showed a self-cleavage of 0.67. Variant G20U C34G U122A has a self-cleavage of 0.92. With A36G A63G A95G A110U the self-cleavage was 1.54. Work on A5G A22G U72A A90U yielded a self-cleavage of 0.32. A23G A47U A51G A140U gave a self-cleavage of 0.28. For U19C A82U A96G U102A C112A U131C, the self-cleavage was 0.01. Work on A67G A90G U139C yielded a self-cleavage of 1.43. In the case of A24G A52G A91U, the self-cleavage is reported as 1.42. A33G U37C A135U gave a self-cleavage of 1.18. With A59G A60U A82G U102C the self-cleavage was 1.24. Variant A13G A22C A27U has a self-cleavage of 0.95. A13G U39C U57A A67G A86G A126G gave a self-cleavage of 0.91. For A22G A56G C81U, the self-cleavage was 0.46. C6A U19C A24G A59G A64G A82G showed a self-cleavage of 0.37. For A18G A68U U122C, the self-cleavage was 1.79. With C16U A23G A60G A118G U131C the self-cleavage was 0.4. Variant A23G A54G A55G has a self-cleavage of 1.18. With U12A A52U U120C the self-cleavage was 1.76. Work on A11G A116G U122C yielded a self-cleavage of 0.17. With G14A A47G A56G A60G U87C the self-cleavage was 0.78. With A18U U19C U39A the self-cleavage was 1.66. A64U U72C A116U showed a self-cleavage of 0.07. Variant A60G G80A G138C has a self-cleavage of 0.19. For A36G C45U A47G A52G A59G A67G A68G U127C U131C, the self-cleavage was 1.46. Work on A11G A22G A60G yielded a self-cleavage of 0.72. Variant A5G A78U U108C U122C U132C has a self-cleavage of 0. For C6U A89G A116G, the self-cleavage was 0.2. U12C U102C U108C U122C showed a self-cleavage of 0. Work on A36G U38C A90G A117U yielded a self-cleavage of 1.28. A92U A117G A126G A134G U139C gave a self-cleavage of 1.69. C32U U72C A78U A89U U120C gave a self-cleavage of 0.06. Work on U38C A47G A117U U133C yielded a self-cleavage of 0.59. Work on A5C A30G A63U A66G yielded a self-cleavage of 0.87. With U9C A22G U26C U72A U133A the self-cleavage was 0.43. Work on U39C A59G A64U U127G yielded a self-cleavage of 1.27. In the case of A60G U108C A118U, the self-cleavage is reported as 0. With U124C U131C A140G the self-cleavage was 0.03. Work on A47G U49C A66G yielded a self-cleavage of 1.32. A11G A13G A62G A117G gave a self-cleavage of 1.38. U19C A86U A125G gave a self-cleavage of 1.07. With U19C C46A A66G U87C A96G the self-cleavage was 1. In the case of C6U C16A A63U A95G, the self-cleavage is reported as 1.33. A24U G74C A96G A117G U130C showed a self-cleavage of 0.1. A22G A24G A91G A98C U108C gave a self-cleavage of 0.01. U72C G79A A111U A126G showed a self-cleavage of 0.01. With A51G A86G U139A the self-cleavage was 1.83. Work on A4G A18U A92G yielded a self-cleavage of 1.47. With U19A G28A U70A U122C the self-cleavage was 0.59. In the case of A18G A56G A82G C109U A117G, the self-cleavage is reported as 0.14. U2A U3C A89G showed a self-cleavage of 1.12. Work on C25A A64U A90U A118G yielded a self-cleavage of 1.05. Work on A11G A13G G84U yielded a self-cleavage of 1.47. Variant A54G A62G C77U A117G has a self-cleavage of 2.36. Work on A62G A91G G136A yielded a self-cleavage of 0.64. With A11U G15A U38C A67G A95G the self-cleavage was 0.22. Variant U12A U43A U133C has a self-cleavage of 2.54. For U9C A64G A90G U122C, the self-cleavage was 1.94. Variant U39C A47G A56G has a self-cleavage of 0.58. A13G A69G U102C gave a self-cleavage of 1.22. A33U A82U U139C showed a self-cleavage of 0.2. U37C A47U U122A U130A gave a self-cleavage of 0.52. A33G A62G U127C gave a self-cleavage of 0.93. With U97C U103C U108C the self-cleavage was 0. A60G U72A C88A A118G gave a self-cleavage of 0.08. A22U A54G A64C showed a self-cleavage of 1.07. A24G A55G A78G U108C A116G U120C showed a self-cleavage of 0. For U39C A66G A86G U103G, the self-cleavage was 0.01. With U39A A54G A63G A116G A140G the self-cleavage was 0.59. A33U A47G U102C U108C U122C gave a self-cleavage of 0.01. Work on A22G C77A G106C yielded a self-cleavage of 0. A5G C6U U49C A92G G93A gave a self-cleavage of 0.91. Variant A22G A23G A90G has a self-cleavage of 1.26. Work on A36G A51G A60G yielded a self-cleavage of 0.57. A55G G58A A67G U72A U122A gave a self-cleavage of 0.11. U43C A67U C88U A92U U103C gave a self-cleavage of 1.15. Variant U12C A18U A126G A135C has a self-cleavage of 1.42. For U49C A90G U132A, the self-cleavage was 1.28. Work on U39A A96G U139C yielded a self-cleavage of 1.9. Work on U2C U39C A52G yielded a self-cleavage of 0.55. In the case of A54G A67G U124G, the self-cleavage is reported as 1.47. A52G A66G A135U showed a self-cleavage of 1.75. In the case of U38A A54U U87C A96G, the self-cleavage is reported as 2.28. For A62U A66G G73U A125G, the self-cleavage was 0.03. In the case of A11G C88A A96G A140U, the self-cleavage is reported as 1.41. Variant C16A A51G A82U has a self-cleavage of 0.29. With G31A U70C U87C the self-cleavage was 0.78. U87C U100C U108C A114U U133A showed a self-cleavage of 0. A23U U49C A56G U57C gave a self-cleavage of 1. Variant U43C U57C A110C A135C has a self-cleavage of 0.12. Variant A47G A54G A59U A82G A116U has a self-cleavage of 0.04. For U39A A69G A111U A126U, the self-cleavage was 0.03. For A22G A36U U43A U103C U130C, the self-cleavage was 1.16. For U37G A63U A68U A96G, the self-cleavage was 2.11. In the case of A24G A78C C81U, the self-cleavage is reported as 0.21. U2A A23G A140G showed a self-cleavage of 0.87. Work on A52G A91G A111G A114G U120C yielded a self-cleavage of 0. In the case of A22G A59G A82C, the self-cleavage is reported as 0.17. With U9C A30U U100C U108C the self-cleavage was 0.02. For A62G A111G U122C A135U, the self-cleavage was 0.01. For A64G A95G G104A, the self-cleavage was 0.03. With A30G A33G U108C A114C the self-cleavage was 0.01. For U9A A27G A90G A94G U97C, the self-cleavage was 0.97. For A18U U19A G53A, the self-cleavage was 1.22. Work on A24G C45U A51G A140G yielded a self-cleavage of 0.75. A69G A78C A114U showed a self-cleavage of 0.01. With A33U A92G A125G the self-cleavage was 1.05. A30G U38C A98G A111G gave a self-cleavage of 0.03. U9C C46U A62G A89G showed a self-cleavage of 1.59. For U39C A110G U130C U133C, the self-cleavage was 0.1. With A23G A69G A117G the self-cleavage was 1.29. For A55G U87C A91G, the self-cleavage was 1.5. U102C A111G A117G gave a self-cleavage of 0.01. Variant A4G U103C A111G U124C has a self-cleavage of 0.02. A64G A66G U120C showed a self-cleavage of 1.56. Work on G14A A68G U127G yielded a self-cleavage of 1.57. A22G U38C A51G A66G C77U A126G A129U showed a self-cleavage of 0.68. U38C A55G U130C gave a self-cleavage of 1.34. For U57C A78G U102C, the self-cleavage was 0.24. U2C A54G U72C A78G A118G showed a self-cleavage of 0.08. With A13U G31U A52G A68G the self-cleavage was 1.09. Variant A36G U37C A63U A117G U122C has a self-cleavage of 2.3. For A36U A52G U70C, the self-cleavage was 0.36. In the case of A30G A89G U103A, the self-cleavage is reported as 0.79. In the case of A47U A51G A111G, the self-cleavage is reported as 0.01. With A18G A51G A54G A82U C113U U122C the self-cleavage was 0.01. Work on A18U A96G U124C yielded a self-cleavage of 1.07. With U70A A92G A96G the self-cleavage was 0.53. In the case of A78G A90G A92C U132C, the self-cleavage is reported as 0.04. Variant U39C A68U U70A A117U has a self-cleavage of 0.85. In the case of A66G G75A U87C A125G, the self-cleavage is reported as 0.02. Variant A91G A92U U97C has a self-cleavage of 0.35. For U100C U131C U133A, the self-cleavage was 2.07. A18G G28U A54G A111G showed a self-cleavage of 0.01. Variant C85U U87A A95G has a self-cleavage of 1.25. With U39A A82G U132C U133C U139C the self-cleavage was 0.69. G7U A62U A86G showed a self-cleavage of 2.05.
